From patent US20250032630A1, “B7H4 ANTIBODY-DRUG CONJUGATE AND USE THEREOF” (Duality Biologics (Suzhou) Co., Ltd., priority 2022, published 2025)

Assays:
[1] = system: human endometrial carcinoma cells RL95-2 subcutaneous xenograft; assay: Pharmacodynamic evaluation in tumor-bearing mice (RL95-2); type: in vivo
[2] = system: MDA-MB-231 cells negative for B7H4 expression; assay: In vitro proliferation inhibition of antibody-drug conjugate (CTG, 7 days); type: cell-based; details: cell left blank in the table, second cell line of the test is MDA-MB-231, 7 days
[3] = system: human breast cancer cells MX-1 subcutaneous xenograft; assay: Pharmacodynamic evaluation in tumor-bearing mice (MX-1); type: in vivo
[4] = system: B7H4-expressing MDA-MB-468 cells; assay: Endocytosis efficiency (Incucyte Fabfluor-pH, live-cell imaging 24 hours); type: cell-based; details: MDA-MB-468, final concentration 60 nM
human B7-H7 (HHLA2) = biological target: T1, human B7-H7 (HHLA2) (Homo sapiens, UniProt Q9UM44); assay: Binding specificity to cells overexpressing human B7 family proteins (flow cytometry); details: CHO-KI stably expressing the protein, 100 nM or 300 nM
T1 construct: expressed in transfected cells
T1 sequence (Q9UM44 23-414): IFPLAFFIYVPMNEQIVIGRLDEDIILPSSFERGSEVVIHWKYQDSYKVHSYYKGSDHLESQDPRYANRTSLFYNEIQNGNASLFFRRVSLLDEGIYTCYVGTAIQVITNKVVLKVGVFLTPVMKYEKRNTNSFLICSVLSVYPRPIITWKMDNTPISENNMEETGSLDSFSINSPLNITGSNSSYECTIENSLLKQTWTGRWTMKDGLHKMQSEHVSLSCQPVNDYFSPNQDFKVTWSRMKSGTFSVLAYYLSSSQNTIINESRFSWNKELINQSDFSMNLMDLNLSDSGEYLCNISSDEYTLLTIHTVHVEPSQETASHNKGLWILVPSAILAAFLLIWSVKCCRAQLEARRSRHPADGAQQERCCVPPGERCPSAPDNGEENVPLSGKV

[5] = system: HT29-Luc2 cells that do not express B7H4; assay: Bystander killing test (Bright-Glo luciferase); type: cell-based; details: 10 nM, 7 days
[6] = system: human breast cancer cells MCF-7 positive for B7H4 expression, xenograft; assay: Pharmacodynamic evaluation in tumor-bearing mice (MCF-7); type: in vivo; details: MCF-7 xenograft in NCG mice, 3 mg/kg single injection, endpoint day 25
mouse B7H4 = biological target: T2, mouse B7H4 (Mus musculus, UniProt Q7TSP5); assay: Species cross-reactivity, flow cytometry binding to B7H4-transfected HEK293T cells; details: Mouse B7H4-293T
T2 construct: expressed in transfected cells; host or cells: HEK293T
T2 sequence (Q7TSP5 25-257): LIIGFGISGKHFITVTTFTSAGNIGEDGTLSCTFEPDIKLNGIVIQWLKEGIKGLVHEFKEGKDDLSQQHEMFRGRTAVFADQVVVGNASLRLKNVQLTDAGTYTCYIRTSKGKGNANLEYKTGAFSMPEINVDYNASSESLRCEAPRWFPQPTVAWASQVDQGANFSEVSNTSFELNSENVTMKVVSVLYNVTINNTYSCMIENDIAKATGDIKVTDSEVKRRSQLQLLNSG

human ICOSLG (B7-H2) = biological target: T3, human ICOSLG (B7-H2) (Homo sapiens, UniProt O75144); assay: Binding specificity to cells overexpressing human B7 family proteins (flow cytometry); details: HEK293T stably expressing the protein, 100 nM or 300 nM
T3 construct: expressed in transfected cells
T3 sequence (O75144 19-302): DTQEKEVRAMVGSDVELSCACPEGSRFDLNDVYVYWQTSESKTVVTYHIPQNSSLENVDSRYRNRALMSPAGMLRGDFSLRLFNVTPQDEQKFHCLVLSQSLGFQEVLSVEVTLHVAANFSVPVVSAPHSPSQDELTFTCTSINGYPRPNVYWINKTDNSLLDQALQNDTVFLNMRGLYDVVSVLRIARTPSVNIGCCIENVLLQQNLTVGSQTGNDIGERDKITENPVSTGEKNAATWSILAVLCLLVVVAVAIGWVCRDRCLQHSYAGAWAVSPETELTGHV

[7] = system: human breast cancer cells MX-1 with high expression of B7H4; assay: In vitro proliferation inhibition (3D cell culture, CTG); type: cell-based; details: MX-1, 3D culture, 6 days, highest concentration 100 nM
Description: (§1) The cells in the logarithmic growth phase were collected and a cell culture medium was added to resuspend the cells to prepare a single cell suspension. The single cell suspension was adjusted to a live cell density of […], and 3.5 mL of the cell suspension was mixed uniformly with 6.5 mL of 1% methylcellulose, avoiding bubbles as much as possible. 90 μL of the cell suspension was added to each well of 96-well plates, and the plates were cultured overnight in an incubator with 5% CO2 at 37° C. On the second day of the experiment, the test article was diluted with a complete medium to obtain a 10× solution, 10 μL of the test article solution (the highest final concentration of 100 nM, 9 concentrations, 3-fold dilution) was added to each well, the complete medium was used as a blank control, and 3 replicate wells were set up; and the plates were incubated in the incubator at 37° C. for another 6 days. After the incubation was completed, the cell culture plates were taken out and equilibrated to room temperature, and 100 μL of CTG detection reagent (Promega, Cat #: G7573) was added to each well. The plates were shaken and mixed uniformly, then left to stand in the dark for 10 minutes, and then placed at room temperature for 30 minutes to stabilize the luminescence signal. Luminescence was read using EnVision. Using GraphPad Prism software, a sigmoidal dose-response curve was plotted by using a non-linear regression model, and the IC50 value was calculated. Cell viability calculation

[8] = system: endometrial carcinoma cells RL95-2 with low expression of B7H4; assay: as above; type: cell-based; details: RL95-2, 3D culture, 6 days, highest concentration 100 nM
Description: as §1

[9] = system: breast cancer cells JIMT-1 negative for B7H4 expression; assay: as above; type: cell-based; details: JIMT-1, 3D culture, 6 days
Description: as §1

B1: DB1001-X2: anti-B7H4 antibody DB1001 conjugated with linker-cytotoxin X2, DAR 5.4 (conjugate)
heavy: QVQLVESGGGVVQPGRSLRLSCAASGFTFRSFGMHWVRQAPGKGLEWVAVISYDASNEYYADSVKGRFIISRDNSKDTLYLQMNSLRAGDTAVYYCAKGGALRWYFAYWGQGTLVTVSS[in this place human IgG1 constant region]
light: EIVMTQSPATLSVSPGERATLSCRASQSISSNLGWYQQKPGQAPRLLIYGASTRATGIPARFSGSGSGTEFTLTISSLQSEDFAVYYCQQYRSWPPLTFGGGTKVEIKRTVAAPSVFIFPPSDEQLKSGTASVVCLLNNFYPREAKVQWKVDNALQSGNSQESVTEQDSKDSTYSLSSTLTLSKADYEKHKVYACEVTHQGLSSPVTKSFNRGEC
With B1 the T/C ([1]; RL95-2, day 28, 1 mg/kg) was 57.86%, the TGI ([1]; RL95-2, day 28, 1 mg/kg) was 49.92% and the Tumor volume ([1]; RL95-2, day 28, 1 mg/kg once every two weeks x2, mean ± standard error) was 593 ± 79 mm^3. It also gave a T/C ([1]; RL95-2, day 28, 3 mg/kg) of 24.06%, a TGI ([1]; RL95-2, day 28, 3 mg/kg) of 86.52% and a Tumor volume ([1]; RL95-2, day 28, 3 mg/kg once every two weeks x2, mean ± standard error) of 258 ± 33 mm^3. For the same molecule, the T/C ([1]; RL95-2, day 28, 10 mg/kg) was 7.05%, the TGI ([1]; RL95-2, day 28, 10 mg/kg) was 106.59% and the Tumor volume ([1]; RL95-2, day 28, 10 mg/kg once every two weeks x2, mean ± standard error) was 74 ± 5 mm^3. The IC50 [2] was over 200 nM, the T/C ([3]; MX-1, day 27, 1 mg/kg) was 45.83% and the TGI ([3]; MX-1, day 27, 1 mg/kg) was 54.17%. For the same molecule, the Tumor volume ([3]; MX-1, day 27, 1 mg/kg i.v. once every two weeks x2, mean ± standard error) was 1521.41 ± 281.89 mm^3, the T/C ([3]; MX-1, day 27, 3 mg/kg) was 4.64% and the TGI ([3]; MX-1, day 27, 3 mg/kg) was 95.36%. The Tumor volume ([3]; MX-1, day 27, 3 mg/kg i.v. once every two weeks x2, mean ± standard error) was 154.12 ± 60.47 mm^3, the Total fluorescence area [4] was 14318.1 μm^2/image and the “binding to B7-H7” value (human B7-H7 (HHLA2)) was “not detected”. For the same molecule, the “HT29-Luc2 cell viability, Separate incubation” value [5] was 76.8%, the “HT29-Luc2 cell viability, Co-incubation” value ([5]; co-incubated with HT29-B7H4 at 3:1) was 20.3% and the tumor inhibitory activity [6] was “significant dose-dependent tumor inhibitory activity”. The EC50 (mouse B7H4) was “Not binding”, the MFI.Max (mouse B7H4) was “Not binding” and the “binding to B7-H2” value (human ICOSLG (B7-H2)) was “not detected”. It also gave a Max inh. [7] of 55.47%, a Max inh. [8] of 60.44% and an IC50 [9] of over 100 nM. The Max inh. ([9]; highest concentration 100 nM) was 2.53%.
